{
  "source": "PubChem BioAssay AID463173",
  "about": "(ICCB-Longwood Screening Facility, Harvard Medical School, 2010)",
  "note": "The whole screen tested about 52,000 compounds, of which about 1,700 (3.3%) were called active. Cut-off read from the data, not from the text of the source: active = survival mostly below about 52% (no sharp cut-off); inactive = mostly above about 56%. The list shows a part of the results.",
  "data": [
    {"system": "Wild type", "assay": "growth inhibition of S. aureus wild type versus tarO mutant, primary screen, teichoic acid synthesis inhibitors, RN4220, OD600 (AID 463173)", "settings": "S. aureus RN4220 wild type/DeltatarO growth, OD600, 18 h, stronger effect = lower value, screened at 18.75 µg/mL (by protocol)", "values": [
      {"compound": "CCOc1ccc(CCNC(=O)C2CCCN(c3nnc(C)c4c(C)n(-c5ccccc5)nc34)C2)cc1", "note": "(centres undefined)", "survival": "inactive: 82%"},
      {"compound": "NC(=O)c1c(NC(=O)c2noc3c2CCCC3)sc2c1CCCC2", "survival": "inactive: 73%"},
      {"compound": "COC(=O)c1cc(NC(=O)CCS(=O)(=O)c2cc(Br)cc3c2N(C(=O)C2CC2)CC3)cc(C(=O)OC)c1", "survival": "inactive: 84%"},
      {"compound": "CCc1ccc2nc(N3CCCCC3)c(C#N)cc2c1", "survival": "inactive: 101%"},
      {"compound": "CCOc1cc2[nH]c(=O)n(CCC(=O)N3CCN(c4cccc(Cl)c4)CC3)c(=O)c2cc1OCC", "survival": "inactive: 97%"},
      {"compound": "Cc1ccc(Cl)cc1N1CC(O)=C(c2nc3ccccc3c(=O)[nH]2)C1=N", "survival": "inactive: 106%"},
      {"compound": "COc1ccc2oc(=O)c(C(=O)NCCc3c(C)[nH]c4c(C)cccc34)cc2c1", "survival": "inactive: 71%"},
      {"compound": "CCn1c2ccccc2c2cc(NC(=O)COc3cc(C)c(Cl)c(C)c3)ccc21", "survival": "inactive: 52%"},
      {"compound": "COc1ccc(-n2nc(C(=O)O)cc2-c2ccccc2)cc1", "survival": "inactive: 101%"},
      {"compound": "Cc1ccccc1C(=O)Nc1ccc(NC(=O)c2cccs2)cc1", "survival": "inactive: 77%"},
      {"compound": "CCOc1ccc(-c2csc3ncnc(Nc4cccc(O)c4)c23)cc1", "survival": "inactive: 74%"},
      {"compound": "CCOC(=O)Cn1nc(C)c(NC(=O)COc2ccc(OC)cc2)c1C", "survival": "inactive: 99%"},
      {"compound": "CCOC(=O)c1c(C)oc2nc(C)nc(N3CCN(c4ccc(C)cc4C)CC3)c12", "survival": "inactive: 127%"},
      {"compound": "COc1ccc(C(=O)NCC(c2ccco2)S(=O)(=O)c2ccccc2)cc1", "note": "(centres undefined)", "survival": "active: -6%"},
      {"compound": "CC(=O)N1CCCc2cc(S(=O)(=O)N3CCC(C(=O)NCc4ccc(F)cc4)CC3)ccc21", "survival": "inactive: 85%"},
      {"compound": "O=C1N(c2ccccc2)C(=O)N(c2ccccc2)C2c3ccccc3C=CN12", "note": "(centres undefined)", "survival": "inactive: 117%"},
      {"compound": "NC(=O)CN1C(=O)Cc2ccccc21", "survival": "inactive: 105%"},
      {"compound": "O=C(CCc1ccccc1)N/N=C/c1cccc(O)c1", "survival": "inactive: 114%"},
      {"compound": "CC(C)(C)c1ccc(-c2nnc(-c3ccc(N4CCOCC4)cc3)o2)cc1", "survival": "inactive: 125%"},
      {"compound": "CCCN(C(=O)C1CCN(S(=O)(=O)c2c(C)noc2/C=C/c2ccc(C)cc2)CC1)c1ccccc1F", "survival": "inactive: 74%"},
      {"compound": "Cc1cccc(NC(=O)C2CCC(CNS(=O)(=O)c3ccc4c(c3)CCCC(=O)N4)CC2)c1C", "note": "(centres undefined)", "survival": "inactive: 89%"},
      {"compound": "CCN1CCOC(=O)C1CC(=O)Nc1ccccc1C(F)(F)F", "note": "(centres undefined)", "survival": "inactive: 81%"},
      {"compound": "Cc1cc(C)cc(N(C)S(=O)(=O)c2nnc(NC(=O)COc3ccc(C)c(C)c3)s2)c1", "survival": "inactive: 39%"},
      {"compound": "CCOCCCNC(=O)c1c(NC(=O)Cc2coc3c(C)c(C)ccc23)sc2c1CCC2", "survival": "inactive: 87%"},
      {"compound": "CC(=O)c1ccc(NC(=O)c2cccc(NC(=O)N3CCSc4ncccc43)c2)cc1", "survival": "inactive: 55%"},
      {"compound": "COc1cc(OC)c(NC(=O)COc2ccccc2-c2nnc(-c3ccccc3)o2)cc1Cl", "survival": "inactive: 87%"},
      {"compound": "COC(=O)c1cc(C)nc2c1c(=O)nc(SCc1cc(C)ccc1C)n2C1CC1", "survival": "inactive: 76%"},
      {"compound": "CCCN(Cc1cc2cc(C)ccc2[nH]c1=O)C(=O)c1cccc(Cl)c1", "survival": "inactive: 91%"},
      {"compound": "CCOC(=O)c1cc(-c2ccc(/C=C(\\C#N)C(N)=C(C#N)C#N)o2)ccc1Cl", "survival": "inactive: 136%"},
      {"compound": "Cc1c(Cl)cccc1NC(=O)CN1C(=O)c2ccccc2Sc2ncccc21", "survival": "inactive: 92%"},
      {"compound": "Cc1cccc(C(=O)NC2(C(F)(F)F)N=C(c3ccccc3)N(Cc3ccccc3)C2=O)c1", "note": "(centres undefined)", "survival": "inactive: 91%"},
      {"compound": "CCc1ccccc1Nc1nn2c(=O)c3ccc(C(=O)NCCc4ccccc4)cc3nc2s1", "survival": "inactive: 68%"},
      {"compound": "O=C(CSc1nc2ccccc2n1CC(=O)Nc1ccc(F)cc1F)Nc1ccc(F)cc1", "survival": "inactive: 72%"},
      {"compound": "Cc1ccc(-c2c(CN3CCN(c4cc(Cl)ccc4C)CC3)csc2C)cc1", "survival": "inactive: 92%"},
      {"compound": "O=C(CSc1nnc(-c2ccco2)c(-c2ccco2)n1)N1c2ccccc2Sc2ccc(Cl)cc21", "survival": "inactive: 107%"},
      {"compound": "CC(=O)N1CCc2c(sc3c2c(=O)n(-c2ccccc2Cl)c(=O)n3C)C1", "survival": "inactive: 78%"},
      {"compound": "CCn1c(C)cs/c1=N\\C(=S)Nc1ccccc1C", "survival": "inactive: 105%"},
      {"compound": "COCCCN1CCc2nc(SCC(=O)Nc3ccc(C)c(Cl)c3)[nH]c(=O)c2C1", "survival": "inactive: 90%"},
      {"compound": "CCn1c(=O)c2cc(C(=O)NCCc3cccc(C)c3)sc2c2ccccc21", "survival": "inactive: 81%"},
      {"compound": "CCOc1ccc2c(c1)c(=O)c(S(=O)(=O)c1ccc(C)cc1)cn2CC(=O)Nc1ccc(C)cc1", "survival": "inactive: 98%"},
      {"compound": "COc1ccc(-n2c(SCc3nc(-c4ccc(C)cc4)no3)nnc2-c2ccncc2)cc1", "survival": "inactive: 77%"},
      {"compound": "CNS(=O)(=O)c1cn(CC(=O)Nc2ccc(F)cc2F)cc1S(=O)(=O)NC", "survival": "active: -3%"},
      {"compound": "Cc1ccc(N2CC(c3nnc(Cc4ccc(Cl)cc4)o3)CC2=O)cc1", "note": "(centres undefined)", "survival": "inactive: 37%"},
      {"compound": "COc1nc(Nc2ccc(C)cc2)nc(NC2CCCC2)n1", "survival": "inactive: 125%"},
      {"compound": "CCCCNc1sc(S(=O)(=O)CC)nc1S(=O)(=O)c1ccc(C)cc1", "survival": "inactive: 82%"},
      {"compound": "CC(=O)Nc1cc(C(=O)NCc2ccccc2)ccc1Sc1ccc(C)cc1", "survival": "inactive: 78%"},
      {"compound": "CCc1ccccc1NC(=O)CSc1nnc(-c2cc(OC)c(OC)c(OC)c2)o1", "survival": "inactive: 109%"},
      {"compound": "Cc1cccc(N2CCN(C(=O)Cn3c(=O)c4cccn4c4ccc(F)cc43)CC2C)c1", "note": "(centres undefined)", "survival": "inactive: 110%"},
      {"compound": "CCN(c1ccc(OC)cc1)S(=O)(=O)c1c(C(=O)N2CCCCCC2)c(C)n(C)c1C", "survival": "inactive: 69%"},
      {"compound": "COc1ccc(N2CCN(CC(O)COc3ccccc3C(C)(C)C)CC2)cc1", "note": "(centres undefined)", "survival": "active: -3%"},
      {"compound": "Cc1ccc(CNC(=O)C(C(C)C)N2Cc3ccccc3C2=O)cc1", "note": "(centres undefined)", "survival": "inactive: 80%"},
      {"compound": "Cc1cccc(C(=O)Nc2ccc(-c3nc4ccccc4s3)c(C)c2)c1", "survival": "inactive: 73%"},
      {"compound": "CCCCn1nnnc1SCC(=O)NCc1ccccc1", "survival": "inactive: 103%"},
      {"compound": "O=C(NC1CCCCC1)c1ccc(Cn2c(SCc3cccc(F)c3)nc3cccnc32)cc1", "survival": "inactive: 88%"},
      {"compound": "CN(C(=O)CSc1cn(CC(=O)N2CCCCCC2)c2ccccc12)c1ccccc1", "survival": "inactive: 88%"},
      {"compound": "O=C(CCc1nc(-c2ccccc2F)no1)Nc1cccc(C(F)(F)F)c1", "survival": "inactive: 64%"},
      {"compound": "Cc1ccc(CC(=O)N(Cc2nc(-c3ccc(C)cc3)no2)C(C)C)cc1", "survival": "active: -1%"},
      {"compound": "Cc1ccc(C)c(N2CCN(C(=O)c3cccc(-n4c(C)nc5cccnc54)c3)CC2)c1", "survival": "inactive: 85%"},
      {"compound": "Cc1nn(-c2ccccc2)c(OC(=O)c2ccc(Br)cc2)c1S(=O)(=O)c1ccccc1", "survival": "inactive: 111%"},
      {"compound": "CCOc1ccc(NC(=O)Cn2c(=O)n(CCc3ccccc3)c(=O)c3c4c(sc32)CN(C(C)=O)CC4)cc1", "survival": "inactive: 117%"},
      {"compound": "CCc1ccc(NC(=O)CSC2=Nc3ccccc3C3=NC(CCC(=O)NCc4ccccc4OC)C(=O)N23)cc1", "note": "(centres undefined)", "survival": "inactive: 65%"},
      {"compound": "CCOCCCNC(=O)c1cnc2sc(N3CCCCCC3)nn2c1=O", "survival": "inactive: 68%"},
      {"compound": "CCOc1ccc(OCC)c(NC(=O)c2cc(C)nc3c2c(C)nn3-c2cccc(Cl)c2C)c1", "survival": "inactive: 78%"},
      {"compound": "Cn1c(=O)c2sccc2n2c(CCCC(=O)Nc3ccc(F)cc3F)nnc12", "survival": "inactive: 146%"},
      {"compound": "O=C(COc1ccc(Cl)cc1)Nc1cc(-c2ccccc2)no1", "survival": "inactive: 83%"},
      {"compound": "COc1ccc2c(c1)c1c(c(=O)n(-c3ccccc3C)c(=O)n1Cc1ccccc1C)n2C", "survival": "inactive: 75%"},
      {"compound": "COc1ccc(OC)c(NC(=O)CN2C(=O)CC(c3ccco3)Sc3ccccc32)c1", "note": "(centres undefined)", "survival": "inactive: 76%"},
      {"compound": "Cc1cc2nn(-c3ccc(Cl)cc3)nc2cc1NC(=O)C(C)C", "survival": "inactive: 127%"},
      {"compound": "COCCCNc1ncnc2c1c(-c1ccccc1)cn2-c1ccc(C)c(Cl)c1", "survival": "inactive: 80%"},
      {"compound": "CCn1c(CN2CCN(c3cccc(Cl)c3)CC2)nc2c1c(=O)[nH]c(=O)n2C", "survival": "inactive: 78%"},
      {"compound": "CCc1cccc2c(=O)c(C(=O)N3CCCC3)c[nH]c12", "survival": "inactive: 103%"},
      {"compound": "C=CCN(CC=C)C(=S)Nc1ccc2nc(C)c(C)nc2c1", "survival": "inactive: 110%"},
      {"compound": "COc1ccc(CNC(=O)c2cc3ccccn3n2)c(OC)c1", "survival": "inactive: 70%"},
      {"compound": "CCCCN(CC)C(=O)Cn1c(=O)n(-c2ccc(OCC)cc2)c(=O)c2c3c(sc21)CCC3", "survival": "inactive: 92%"},
      {"compound": "O=C(c1ccc2c(c1)OCO2)c1cn(Cc2ccc(F)cc2)c2ccccc2c1=O", "survival": "inactive: 75%"},
      {"compound": "CCOC(=O)c1ccc2c(c1)[nH]c(=S)n2CC", "survival": "inactive: 109%"},
      {"compound": "Cn1nc(C(=O)N2CCN(c3ccccc3)CC2)c2c1-c1ccccc1SC2", "survival": "inactive: 86%"},
      {"compound": "CCCCOc1ccc(CNC(=O)Cn2ncn3c(cc4cc(F)ccc43)c2=O)cc1", "survival": "inactive: 89%"},
      {"compound": "O=C(O)c1ccc(-c2cccc(Cl)c2)o1", "survival": "inactive: 104%"},
      {"compound": "Cc1ccc(C2CCN(C(=O)c3cnn(-c4ccccc4Cl)c3C3CCN(C(=O)OC(C)(C)C)CC3)C2)cc1", "note": "(centres undefined)", "survival": "inactive: 60%"},
      {"compound": "COc1cc(OC)c(C2C=C(C(=O)O)Nc3ncnn32)cc1OC", "note": "(centres undefined)", "survival": "inactive: 90%"},
      {"compound": "CCCOC(=O)c1c(NC(=O)c2nc3ncccn3n2)sc(C(=O)OCC)c1C", "survival": "inactive: 92%"},
      {"compound": "CC(=O)c1cccc(-n2c(=O)c3c4c(sc3n(Cc3ccccc3Cl)c2=O)CN(C(C)=O)CC4)c1", "survival": "inactive: 88%"},
      {"compound": "COc1ccccc1CNC(=O)c1cn(C)c2ccc(S(=O)(=O)N3CCC(C)CC3)cc2c1=O", "survival": "inactive: 87%"},
      {"compound": "O=C(COc1ccc(S(=O)(=O)NCc2ccccc2)cc1)NCc1ccco1", "survival": "inactive: 117%"},
      {"compound": "Cc1c(F)cccc1NC(=O)C1CCCN1S(=O)(=O)c1ccc(F)cc1", "note": "(centres undefined)", "survival": "inactive: 83%"},
      {"compound": "O=C(CCN1C(=O)CSC1=O)Nc1ccccc1", "survival": "inactive: 106%"},
      {"compound": "CCn1c(=N)c(C(N)=O)cc2c(=O)n3ccccc3nc21", "survival": "inactive: 122%"},
      {"compound": "Cc1ccc2[nH]cc(C(c3ccccc3)c3cccs3)c2c1", "note": "(centres undefined)", "survival": "inactive: 25%"}
    ]}
  ]
}
